Values joined by “and” are separate entries in the source; they are usually repeats but may differ in a detail not shown here. Identical values can stand only once. Hit rate of the full screen: of about 73,000 compounds, about 1,800 (2.5%) were called active. This list was built around the results that the source calls inconclusive (neither active nor inactive); the mix of calls is not that of the screen. Calls come from the whole dose curve; as a rule, active = well fitted activation curve with a large enough effect; inconclusive = small, poorly fitted or top-dose-only effect; inactive = no such curve, though single readings can be large or run the other way. Potencies beside an inconclusive call are fits to weak or partial responses and may not hold up.
Assay: qHTS Assay for Agonists of the Thyroid Stimulating Hormone Receptor: Activators of Intracellular cAMP Concentrations in Parental HEK 293; note: nearly all actives have a fitted effect of over 55% in size; for activation: % of control where 0% means no effect
Details: parental HEK293 CNG cAMP sensor, membrane potential fluorescence; activation: at 57.1 µM (top of the series) unless noted
Text: NIH Chemical Genomics Center [NCGC]
NIH Molecular Libraries Screening Centers Network [MLSCN]
PI Name: Dr. Marvin Gershengorn
This cell based assay utilized a cyclic nucleotide gated ion channel (CNG) as a biosensor for cAMP induction. HEK 293 cells stably expressing the modified CNG were purchased from BD biosciences (http://www.atto.com/products/actone/features_benefits.shtml) . Stimulation of cAMP production causes the CNG to open and subsequent membrane depolarization to occur. A fluorescent membrane potential dye (BD biosciences) was utilized to detect cAMP stimulation in cells.
The cells were maintained in DMEM medium (Invitrogen) containing 10 % FBS (Hyclone), 100 units/ml Penicillin, 100 ug/ml Streptomycin (Invitrogen), and 250 ug/ml Geneticin (Invitrogen) and 1 ug/ml Puromycin (Invitrogen) at 37C in 5% CO2. This assay was used as a counterscreen to "qHTS Assay for Agonists of the Thyroid Stimulating Hormone Receptor", to control for compounds signaling through endogenous receptors and other targets of HEK 293 cells.
NCGC Assay Protocol Summary:
High Throughput Screening. Freshly passaged cells were dispensed into 1536-well assay plates at 4 ul/well in DMEM containing phenol red (Invitrogen), 10% FCS (Hyclone), and 100 units/ml Penicillin, 100 ug/ml Streptomycin (Invitrogen) and incubated at 37 C with 5% CO2 for 20 to 36 hrs before the robotic screening. The screen was initiated by addition of 4 ul/well membrane potential dye containing 100 uM RO 20-1724 (Sigma Aldrich), followed by 60 min incubation at room temperature to allow for dye equilibration across the cell membrane. 23 nl/well compound or control was then added to the assay plates, which were incubated for additional 30 min before reading a Envision fluorescence plate reader (Perkin Elmer) in bottom-read mode for fluorescence intensity (emission at 590 nm).
Keywords: cAMP, CNG Ion Channel, quantitative high throughput screening, qHTS, HTS, probe identification, CNG, cAMP, cyclic nucleotide gated ion channel PubChem
Potency is the fitted concentration of half-maximal effect; tags give direction and shape of the fitted curve.

SMILES | Potency | activation
CCOC(=O)Cc1nnc(NC(=O)c2ccccc2OCC)s1 | inconclusive: 25.1 µM [activator, single point] | 
CSc1nc(N2CCOCC2)c2c3c(sc2n1)CCCC3 | inconclusive: 31.6 µM [activator, single point] | 
CCN1C(=O)c2cccc3c(S(=O)(=O)Nc4ccccn4)ccc1c23 |  | inactive: 0.931%
CCOC(=O)Cc1nnc2c(Nc3ccccc3F)nc3nonc3n12 | inconclusive: 20 µM [activator, partial curve] | 
CC(C)C(OC(=O)C1CCCO1)C(=O)NC1CCCC1 (stereo not given) | inconclusive: 39.8 µM [activator, single point] | 
CS(=O)(=O)N1CCC[C@@]2(CCN(Cc3ccccc3)C2)C1 | inconclusive: 0.0316 µM [activator, full curve, poor fit] | 
O=c1[nH]c(=S)c2[nH]c(=O)n(-c3ccccc3)c2[nH]1 | inconclusive: 6.31 µM [activator, single point] | 
N#Cc1cccc(NC(=O)N2CC[C@@]3(CCCN(C(=O)c4cccc(F)c4)C3)C2)c1 | inconclusive: 0.0079 µM [activator, partial curve, poor fit] | 
COc1ccccc1NC(=O)NCC(=O)Nc1ccc(F)c(F)c1 | inconclusive: 39.8 µM [activator, single point] | 
O=C(c1cnccn1)N1CCC[C@@]2(CCN(C(c3ccccc3)c3ccccc3)C2)C1 | inconclusive: 7.94 µM [activator, full curve] | 
O=S(=O)(c1ccccc1)N1CCC2(CCN(c3ccncc3)CC2)CC1 |  | inactive: -23.3%
CCCNC(=O)c1ccccc1NS(=O)(=O)c1ccc(OC)c(OC)c1 | inconclusive: 6.31 µM [activator, single point] | 
CC(=O)OCC1OC(C#Cc2ccc(F)cc2F)C=CC1OC(C)=O (stereo not given) |  | inactive: 14.1% [at 11.4 µM]
CCCN(CC1CC1)c1nc(C)nc(Nc2c(Cl)cc(Cl)cc2Cl)c1Cl | inactive and inconclusive: 1.58 µM [activator, partial curve] | 
CCN(Cc1ccccc1)C(=O)c1ccccc1C | inconclusive: 20 µM [activator, single point] | 
Cc1ccccc1CN1C(=O)C2(OCCCO2)c2ccccc21 | inconclusive: 39.8 µM [activator, single point] | 
N#Cc1c2c(c(NCCN3CCOCC3)n3c1nc1ccccc13)CCCC2 | inconclusive: 25.1 µM [activator, partial curve] | 
C#CCOC(=O)CCCC(=O)Nc1ccccc1OC | inconclusive: 1.26 µM [activator, partial curve] | 
COc1ccc(NS(=O)(=O)Cc2ccccc2Cl)cn1 | inconclusive: 6.31 µM [activator, single point] | 
COc1ccc(-c2nnc3ccc(SC)nn23)cc1 | inconclusive: 6.31 µM [activator, single point] | 
O=S(=O)(Nc1cccnc1)c1ccc(C2CCCCC2)cc1 | active: 25.1 µM | 
COc1ccccc1C1C=C(c2ccccc2)Nc2nnnn21 (stereo not given) | active: 3.98 µM | 
O=C(CSc1nc2c(c(=O)n1-c1ccc(F)cc1)SCC2)NCc1ccco1 | inconclusive: 25.1 µM [activator, partial curve] | 
O=C(Nc1ccc(Cl)cc1)c1ccc2c(c1)OCO2 |  | inactive: 26.7%

SMILES | Potency | activation
Cn1cccc1Cc1nnc(SCC(=O)N2CCc3ccccc32)n1CCc1ccccc1 |  | inactive: 8.01%
Fc1cccc(Cl)c1/C=N\N=C1c2ccccc2-c2ccccc21 |  | inactive: 9.76% [at 11.4 µM]
O=C1CC(c2ccccc2)CC(O)=C1C=NCCCO (stereo not given) | inconclusive: 3.16 µM [activator, partial curve] | 
O=C(O)CSc1nnc(CNc2ccc(Cl)cc2)n1Cc1ccccc1 | active: 31.6 µM | 
O=C(C1CCC(=O)N1Cc1ccccc1Cl)N1CCN(c2cccc(Cl)c2)CC1 (stereo not given) | inconclusive: 25.1 µM [activator, partial curve] | 
COC(=O)C(NC(=O)c1ccccc1)=C1CCCCC1 |  | inactive: 15.4%
CO/N=C(\C(=O)N[C@@H]1C(=O)N2C(C(=O)O)=C(CSc3nc(=O)c(O)nn3C)CS[C@@H]12)c1csc(N)n1 |  | inactive: -7.56%
CCOC(=O)Cc1c(C)nc(-c2ccccc2)[nH]c1=O | inconclusive: 15.8 µM [activator, partial curve, poor fit] | 
C1CCC(c2nn3c(-c4n[nH]c5c4CCC5)nnc3s2)CC1 | active: 31.6 µM | 
CCOCC(O)CS(=O)Cc1ccccc1 (stereo not given) | inconclusive: 5.01 µM [activator, single point] | 
Fc1ccc(-c2cc(C(F)(F)F)nc(NCC3CCCO3)n2)cc1 (stereo not given) | inconclusive: 39.8 µM [activator, single point] | 
C=CCn1c(SCC(=O)c2cccs2)nc2sc(CC)cc2c1=O | active: 15.8 µM | 
CCOC(=O)c1cnc(-n2nc(C)cc2C)nc1Nc1cccc(C(=O)O)c1 |  | inactive: 13.1%
COc1cccc(-c2cncnc2NCc2ccccc2OC)c1 | active: 25.1 µM | 
CN1CC2=Cc3ccccc3OC23Oc2ccccc2C=C3C1 | inconclusive: 7.94 µM [activator, partial curve] | 
CS(=O)(=O)N1CCN(C(=O)c2ccccc2F)CC1 | inconclusive: 3.98 µM [activator, single point] | 
COc1cc([C@H]2c3cc4c(cc3[C@@H](O[C@@H]3O[C@H]5CO[C@@H](C)O[C@]5(O)C[C@H]3O)[C@@H]3COC(=O)[C@H]23)OCO4)cc(OC)c1O | inconclusive: 39.8 µM [activator, single point] | 
Cc1ccc(-n2c(C)cc3c2CCCC3=O)cc1 | inconclusive: 31.6 µM [activator, single point] | 
O=C(c1cc(-c2ccc3c(c2)OCO3)on1)N1CCN(c2ccccc2)CC1 | inconclusive: 20 µM [activator, partial curve] | 
C=CC(=O)NC(C)C |  | inactive: 14.4%
OC[C@@H](O)CN1CCN(c2ccccc2)CC1 |  | inactive: 1.44% [at 25.6 µM]
O=C(Nc1ccc2nc3n(c(=O)c2c1)CCCCC3)c1ccccn1 |  | inactive: -2.41%
O=c1[nH]c2ccccc2n1CCCSc1cnc2ccccc2n1 | inconclusive: 0.0063 µM [activator, full curve, poor fit] | 
CCC(C(=O)NCc1ccco1)n1nc(-c2ccc(OC)cc2)ccc1=O (stereo not given) | inconclusive: 20 µM [activator, single point] | 

SMILES | Potency | activation
CC(C)(C)c1ccc(S(=O)(=O)N2CCN(CCC#N)CC2)cc1 | inconclusive: 31.6 µM [activator, single point] | 
Cc1ccc(S(=O)(=O)N[C@@H](CCc2ccccc2)CC(=O)C(C)(C)C)cc1 |  | inactive: 16.4% [at 11.4 µM]
O=C(OCCOc1ccccc1Cl)c1ccc(-n2cnnn2)cc1 | active: 39.8 µM | 
CCCOc1ccc2oc(=O)c3c(c2c1)CCCN3C(=O)CN1CCCC(C(=O)OCC)C1 (stereo not given) | inconclusive: 20 µM [activator, single point] | 
CCCn1c(O)c(CN2CCCCC2)c(C)c(C#N)c1=O | inconclusive: 5.01 µM [activator, single point] | 
Cc1nc(NC2CCCCC2)c2nc(-c3ccccc3)n(CCN3CCCCC3)c2n1 | inconclusive: 3.98 µM [activator, full curve] | 
N#Cc1nc(-c2ccco2)oc1N1CCN(c2ccccc2)CC1 | inconclusive: 20 µM [activator, partial curve] | 
CCCOc1nc2c(c(=O)n(C)c(=O)n2C)n1Cc1cccc2ccccc12 | active: 31.6 µM | 
CCOC(=O)c1cnc2ccc(C(=O)OC)cc2c1NCc1ccco1 | inconclusive: 15.8 µM [activator, partial curve] | 
Cc1ccc(NS(=O)(=O)c2ccc(NC(=O)c3ccc(Br)o3)cc2)c(C)c1 | inconclusive: 2 µM [activator, partial curve] | 
COC(=O)[C@@]1(Cc2ccc(OC)cc2)[C@H]2c3cc(C(=O)N4CCCC4)n(CCc4ccccn4)c3C[C@H]2CN1C(=O)c1ccccc1 | inconclusive: 15.8 µM [activator, partial curve] | 
O=C(Nc1ccc2oc(Cc3ccc(Cl)cc3)nc2c1)c1cccnc1 | inconclusive: 6.31 µM [activator, single point] | 
COCCn1c(COc2ccc(OC)cc2)nc2ccccc21 | inconclusive: 25.1 µM [activator, single point] | 
CC1CN(C(=O)C2CCCCC2)C(C)CN1C(=O)C1CCCCC1 (stereo not given) | inconclusive: 6.31 µM [activator, single point] | 
COc1cccc(-c2nnc(SCC(=O)Nc3ccc4c(c3)OCCO4)n2Cc2ccco2)c1 | inconclusive: 31.6 µM [activator, single point] | 
O=C(CSc1nnc(-c2cccnc2)n1Cc1ccco1)Nc1nc(-c2ccc(F)cc2)cs1 |  | inactive: 25.5%
c1ccc(CNc2ncncc2-c2ccoc2)cc1 | inconclusive: 5.01 µM [activator, single point] | 
O=C(NCc1ccc2c(c1)OCO2)c1cccc(Cl)c1 |  | inactive: 16.1%
CCCCn1c(SCC(=O)Nc2cc(C)on2)nc2ccsc2c1=O | inconclusive: 25.1 µM [activator, partial curve] | 
CC1CCN(Cc2nc3c(c(=O)n(C)c(=O)n3C)n2CCCc2ccccc2)CC1 | inconclusive: 2.51 µM [activator, full curve, poor fit] | 
CCOC(=O)CCC(=O)c1c(C)oc2ccc(OC)cc12 | inconclusive: 15.8 µM [activator, partial curve] | 
Cc1ccc(CN(C)C(=O)c2ccccc2Oc2ccccc2)o1 | active: 31.6 µM | 
